# Some of the results follow.
# B1: Gal 3 (Homo sapiens), P17931 (protein)
# chain: MADNFSLHDALSGSGNPNPQGWPGAWGNQPAGAGGYPGASYPGAYPGQAPPGAYPGQAPPGAYHGAPGAYPGAPAPGVYPGPPSGPGAYPSSGQPSAPGAYPATGPYGAPAGPLIVPYNLPLPGGVVPRMLITILGTVKPNANILDFQRGNDVAFHFNPRFNENNRRVIVCNTLLDNNWGREERQSVFPFESGKPFKIQVLVEPDHFKVAVNDAHLLQYNHRVKKLNEISKLGISGDIDLTSASYTMI
# Key:
# Test in all cases: glycan array binding signal (z-score within array); higher = stronger binding
# Conditions in all cases: glycan notation: IUPAC condensed, linker removed; mutation: K176L
# [1] = target: Neu5Ac(a2-3)Gal(b1-4)[Fuc(a1-3)]GlcNAc(b1-3)GalNAc
# How it was run: (§1)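 The binding signal is a Z-score computed within each array and averaged over linkers. Arrays of the same protein sequence at different concentrations or buffers were also averaged together. Data originate from 3228 arrays in the Consortium for Functional Glycomics database, kept only where the protein sequence was available.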
# [2] = target: Neu5Ac(a2-3)Gal(b1-4)[Fuc(a1-3)]GlcNAc(b1-6)[Gal(b1-3)]GalNAc
# How it was run: as §1
# [3] = target: Neu5Ac(a2-3)Gal(b1-4)[Fuc(a1-3)]GlcNAc(b1-6)[Neu5Ac(a2-3)Gal(b1-3)]GalNAc
# How it was run: as §1
# [4] = target: Neu5Ac(a2-3)Gal(b1-4)[Fuc(a1-3)]GlcNAc6S
# How it was run: as §1
# [5] = target: Neu5Ac(a2-3)Gal6S(b1-4)GlcNAc
# How it was run: as §1
# [6] = target: Neu5Ac(a2-3)Gal6S(b1-4)[Fuc(a1-3)]GlcNAc
# How it was run: as §1
# Neu5Ac(a2-3)GalNAc = target: Neu5Ac(a2-3)GalNAc
# How it was run: as §1
# [7] = target: Neu5Ac(a2-3)GalNAc(b1-4)GlcNAc
# How it was run: as §1
# [8] = target: Neu5Ac(a2-3)[GalNAc(b1-4)]Gal(b1-4)Glc
# How it was run: as §1
# [9] = target: Neu5Ac(a2-3)[GalNAc(b1-4)]Gal(b1-4)GlcNAc
# How it was run: as §1
# [10] = target: Neu5Ac(a2-3)[GalNAc(b1-4)]Gal(b1-4)GlcNAc(b1-3)GalNAc
# How it was run: as §1
# [11] = target: Neu5Ac(a2-3)[Neu5Ac(a2-6)]GalNAc
# How it was run: as §1
# Neu5Ac(a2-6)Gal = target: Neu5Ac(a2-6)Gal
# How it was run: as §1
# Neu5Ac(a2-6)Gal(b1-4)Glc = target: Neu5Ac(a2-6)Gal(b1-4)Glc
# How it was run: as §1
# [12] = target: Neu5Ac(a2-6)Gal(b1-4)GlcNAc
# How it was run: as §1
# [13] = target: Neu5Ac(a2-6)Gal(b1-4)GlcNAc(b1-2)Man(a1-3)Man(b1-4)GlcNAc(b1-4)GlcNAc
# How it was run: as §1
# [14] = target: Neu5Ac(a2-6)Gal(b1-4)GlcNAc(b1-2)Man(a1-3)[Gal(b1-4)GlcNAc(b1-2)Man(a1-6)]Man(b1-4)GlcNAc(b1-4)GlcNAc
# How it was run: as §1
# [15] = target: Neu5Ac(a2-6)Gal(b1-4)GlcNAc(b1-2)Man(a1-3)[GlcNAc(b1-2)Man(a1-6)]Man(b1-4)GlcNAc(b1-4)GlcNAc
# How it was run: as §1
# [16] = target: Neu5Ac(a2-6)Gal(b1-4)GlcNAc(b1-2)Man(a1-3)[GlcNAc(b1-2)Man(b1-4)GlcNAc(b1-2)Man(a1-6)]Man(b1-4)GlcNAc(b1-4)GlcNAc
# How it was run: as §1
# [17] = target: Neu5Ac(a2-6)Gal(b1-4)GlcNAc(b1-2)Man(a1-3)[Man(a1-6)]Man(b1-4)GlcNAc(b1-4)GlcNAc
# How it was run: as §1
# [18] = target: Neu5Ac(a2-6)Gal(b1-4)GlcNAc(b1-2)Man(a1-3)[Neu5Ac(a2-6)Gal(b1-4)GlcNAc(b1-2)Man(a1-6)]Man(b1-4)GlcNAc(b1-4)GlcNAc
# How it was run: as §1
# [19] = target: Neu5Ac(a2-6)Gal(b1-4)GlcNAc(b1-2)Man(a1-6)Man(b1-4)GlcNAc(b1-4)GlcNAc
# How it was run: as §1
# [20] = target: Neu5Ac(a2-6)Gal(b1-4)GlcNAc(b1-2)Man(a1-6)[Gal(b1-4)GlcNAc(b1-2)Man(a1-3)]Man(b1-4)GlcNAc(b1-4)GlcNAc
# How it was run: as §1
# [21] = target: Neu5Ac(a2-6)Gal(b1-4)GlcNAc(b1-2)Man(a1-6)[GlcNAc(b1-2)Man(a1-3)]Man(b1-4)GlcNAc(b1-4)GlcNAc
# How it was run: as §1
# [22] = target: Neu5Ac(a2-6)Gal(b1-4)GlcNAc(b1-2)Man(a1-6)[Man(a1-3)]Man(b1-4)GlcNAc(b1-4)GlcNAc
# How it was run: as §1
# [23] = target: Neu5Ac(a2-6)Gal(b1-4)GlcNAc(b1-3)Gal(b1-3)GlcNAc
# How it was run: as §1
# [24] = target: Neu5Ac(a2-6)Gal(b1-4)GlcNAc(b1-3)Gal(b1-4)GlcNAc
# How it was run: as §1
# [25] = target: Neu5Ac(a2-6)Gal(b1-4)GlcNAc(b1-3)Gal(b1-4)GlcNAc(b1-3)Gal(b1-4)GlcNAc
# How it was run: as §1
# [26] = target: Neu5Ac(a2-6)Gal(b1-4)GlcNAc(b1-3)Gal(b1-4)[Fuc(a1-3)]GlcNAc(b1-3)Gal(b1-4)[Fuc(a1-3)]GlcNAc
# How it was run: as §1
# [27] = target: Neu5Ac(a2-6)Gal(b1-4)GlcNAc(b1-3)GalNAc
# How it was run: as §1
# [28] = target: Neu5Ac(a2-6)Gal(b1-4)GlcNAc6S
# How it was run: as §1
# Neu5Ac(a2-6)GalNAc = target: Neu5Ac(a2-6)GalNAc
# How it was run: as §1
# [29] = target: Neu5Ac(a2-6)GalNAc(b1-4)GlcNAc
# How it was run: as §1
# [30] = target: Neu5Ac(a2-6)GlcNAc(b1-4)GlcNAc
# How it was run: as §1
# [31] = target: Neu5Ac(a2-6)GlcNAc(b1-4)GlcNAc(b1-4)GlcNAc
# How it was run: as §1
# Neu5Ac(a2-8)Neu5Ac = target: Neu5Ac(a2-8)Neu5Ac
# How it was run: as §1
# [32] = target: Neu5Ac(a2-8)Neu5Ac(a2-3)Gal(b1-4)Glc
# How it was run: as §1
# [33] = target: Neu5Ac(a2-8)Neu5Ac(a2-3)[GalNAc(b1-4)]Gal(b1-4)Glc
# How it was run: as §1
# [34] = target: Neu5Ac(a2-8)Neu5Ac(a2-8)Neu5Ac
# How it was run: as §1
# [35] = target: Neu5Ac(a2-8)Neu5Ac(a2-8)Neu5Ac(a2-3)Gal(b1-4)Glc
# How it was run: as §1
# [36] = target: Neu5Ac(a2-8)Neu5Ac(a2-8)Neu5Ac(a2-3)[GalNAc(b1-4)]Gal(b1-4)Glc
# How it was run: as §1
# [37] = target: Neu5Ac(a2-8)Neu5Ac(a2-8)Neu5Ac(a2-8)Neu5Ac(a2-3)[GalNAc(b1-4)]Gal(b1-4)Glc
# How it was run: as §1
# [38] = target: Neu5Ac(b2-6)Gal(b1-4)GlcNAc
# How it was run: as §1
# Neu5Ac(b2-6)GalNAc = target: Neu5Ac(b2-6)GalNAc
# How it was run: as §1
# [39] = target: Neu5Ac9Ac(a2-3)Gal(b1-3)GlcNAc
# How it was run: as §1
# [40] = target: Neu5Ac9Ac(a2-3)Gal(b1-4)GlcNAc
# How it was run: as §1
# [41] = target: Neu5Ac9Ac(a2-6)Gal(b1-4)GlcNAc
# How it was run: as §1
# [42] = target: Neu5Gc(a2-3)Gal(b1-3)GlcNAc
# How it was run: as §1
# [43] = target: Neu5Gc(a2-3)Gal(b1-3)[Fuc(a1-4)]GlcNAc
# How it was run: as §1
# Neu5Gc(a2-3)Gal(b1-4)Glc = target: Neu5Gc(a2-3)Gal(b1-4)Glc
# How it was run: as §1
# [44] = target: Neu5Gc(a2-3)Gal(b1-4)GlcNAc
# How it was run: as §1
# [45] = target: Neu5Gc(a2-3)Gal(b1-4)[Fuc(a1-3)]GlcNAc
# How it was run: as §1
# [46] = target: Neu5Gc(a2-6)Gal(b1-4)GlcNAc
# How it was run: as §1
# Neu5Gc(a2-6)GalNAc = target: Neu5Gc(a2-6)GalNAc
# How it was run: as §1
# [47] = target: Neu5Gc(b2-6)Gal(b1-4)GlcNAc
# How it was run: as §1
binder,measurement,setting,value
B1,glycan array binding signal (z-score),[1],-0.24
same,glycan array binding signal (z-score),[2],-0.262
same,glycan array binding signal (z-score),[3],-0.267
same,glycan array binding signal (z-score),[4],-0.27
same,glycan array binding signal (z-score),[5],-0.265
same,glycan array binding signal (z-score),[6],-0.269
same,glycan array binding signal (z-score),Neu5Ac(a2-3)GalNAc,-0.263
same,glycan array binding signal (z-score),[7],-0.263
same,glycan array binding signal (z-score),[8],-0.27
same,glycan array binding signal (z-score),[9],-0.266
same,glycan array binding signal (z-score),[10],-0.271
same,glycan array binding signal (z-score),[11],-0.27
same,glycan array binding signal (z-score),Neu5Ac(a2-6)Gal,-0.26
same,glycan array binding signal (z-score),Neu5Ac(a2-6)Gal(b1-4)Glc,-0.269
same,glycan array binding signal (z-score),[12],-0.268
same,glycan array binding signal (z-score),[13],-0.266
same,glycan array binding signal (z-score),[14],-0.267
same,glycan array binding signal (z-score),[15],-0.267
same,glycan array binding signal (z-score),[16],-0.258
same,glycan array binding signal (z-score),[17],-0.268
same,glycan array binding signal (z-score),[18],-0.262
same,glycan array binding signal (z-score),[19],-0.268
same,glycan array binding signal (z-score),[20],-0.267
same,glycan array binding signal (z-score),[21],-0.272
same,glycan array binding signal (z-score),[22],-0.271
same,glycan array binding signal (z-score),[23],2
same,glycan array binding signal (z-score),[24],1.53
same,glycan array binding signal (z-score),[25],3.04
same,glycan array binding signal (z-score),[26],-0.268
same,glycan array binding signal (z-score),[27],-0.255
same,glycan array binding signal (z-score),[28],-0.262
same,glycan array binding signal (z-score),Neu5Ac(a2-6)GalNAc,-0.271
same,glycan array binding signal (z-score),[29],-0.272
same,glycan array binding signal (z-score),[30],-0.268
same,glycan array binding signal (z-score),[31],-0.269
same,glycan array binding signal (z-score),Neu5Ac(a2-8)Neu5Ac,-0.27
same,glycan array binding signal (z-score),[32],-0.271
same,glycan array binding signal (z-score),[33],-0.261
same,glycan array binding signal (z-score),[34],-0.272
same,glycan array binding signal (z-score),[35],-0.265
same,glycan array binding signal (z-score),[36],-0.263
same,glycan array binding signal (z-score),[37],-0.269
same,glycan array binding signal (z-score),[38],-0.266
same,glycan array binding signal (z-score),Neu5Ac(b2-6)GalNAc,-0.265
same,glycan array binding signal (z-score),[39],-0.274
same,glycan array binding signal (z-score),[40],-0.267
same,glycan array binding signal (z-score),[41],-0.266
same,glycan array binding signal (z-score),[42],-0.263
same,glycan array binding signal (z-score),[43],-0.272
same,glycan array binding signal (z-score),Neu5Gc(a2-3)Gal(b1-4)Glc,-0.27
same,glycan array binding signal (z-score),[44],-0.27
same,glycan array binding signal (z-score),[45],-0.267
same,glycan array binding signal (z-score),[46],-0.27
same,glycan array binding signal (z-score),Neu5Gc(a2-6)GalNAc,-0.265
same,glycan array binding signal (z-score),[47],-0.264
